Assay results published in PubChem BioAssay AID651820 (National Center for Advancing Translational Sciences (NCATS), 2012).
Screen size: about 340,000 compounds; about 12,000 (3.5%) were called active. This list was built around the results that the source calls inconclusive (neither active nor inactive); the mix of calls is not that of the screen. Calls follow the shape of the dose curve; as a rule, active = well fitted inhibition curve with a large enough effect; inconclusive = small, poorly fitted or top-dose-only effect, or another doubt; inactive = no such curve, though single readings can be large or run the other way. No potency is given beside an inconclusive call; the fits are too rough.

Assay: qHTS Assay for Inhibitors of Hepatitis C Virus (HCV)
Conditions: Huh7.5.1 HCVcc-Cre (HCVcc is cell-culture hepatitis C virus) infection, luciferase reporter, 44 h; activity change, negative = inhibition: at 41.8 µM (top of the series) unless noted
Outline: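 HCVcc-Cre virus at an moi near 0.5 was added right after compound to cells cultured 4 h from seeding (1,000 cells/well). Luciferase activity was determined 44 h later, 15 min after substrate addition at RT.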
% is scaled to controls: 0 for no effect and ±100 for the full control effect; potency is read from the fitted curve at half-maximal effect; tags tell the direction and shape of the fitted curve.

| Compound | Potency | activity change, negative = inhibition |
| --- | --- | --- |
| NC(=O)C(C(=O)/C=C/c1ccc(Cl)cc1)=C1SCCS1 | inconclusive [inhibitor, single point] |  |
| COc1ccccc1-c1c(C)nn2c(N3CCN(c4ccccc4OC)CC3)cc(C)nc12 |  | inactive: 2.36% |
| O=C(Cc1ccc(S(=O)(=O)N2CCOCC2)s1)Nc1ccc(Br)c(C(F)(F)F)c1 | inconclusive [inhibitor, single point] |  |
| O=C(NCc1cccnc1)NC1(C(F)(F)F)Oc2ccc(Cl)cc2O1 (stereo not drawn) | active: 10 µM |  |
| CCNc1nc(NC(C)(C)C)nc(N2CCCC2)n1 | inconclusive [inhibitor, partial curve] |  |
| CC1(C2CC2)NC(=O)N(CC(=O)NCC(=O)Nc2ccc(F)c(F)c2F)C1=O (stereo not drawn) |  | inactive: -9.6% |
| Cc1ccc(-c2noc(CCC(=O)NCCCN3CCN(c4ccc(F)cc4)CC3)n2)cc1 | inconclusive [inhibitor, single point] |  |
| Cc1onc(-c2c(Cl)cccc2Cl)c1-c1nc2cc(Cl)ccc2c(=O)o1 |  | inactive: 0.154% |
| COC(=O)c1c(NC(=O)c2cnccn2)sc2c1CCC2 | inconclusive [inhibitor, partial curve] |  |
| Cc1nc(C)c(-c2ccc(SCC(=O)Nc3ccc(C)c(Cl)c3)nn2)s1 |  | inactive: -20.5% |
| O=C(NCCCn1ccnc1)C1CCN(S(=O)(=O)c2cc([N+](=O)[O-])ccc2Cl)CC1 |  | inactive: 22.3% |
| COc1ccc(S(=O)(=O)N2CCCC(C(=O)Nc3cccnc3)C2)cc1Cl (stereo not drawn) | inconclusive [inhibitor, single point] |  |
| Cc1ccc(S(=O)(=O)NC(C)(C)CSc2nnc(Nc3ccccc3)s2)cc1 | active: 17.8 µM |  |
| CC1=Nn2c(nnc2-c2ccccc2Cl)SC1 |  | inactive: 18.6% |
| Cc1cc(NC(=O)COC(=O)c2ccc(S(=O)(=O)N3CCCc4ccccc43)cc2)no1 | inconclusive [inhibitor, partial curve] |  |
| NC(=O)c1c(NC(=O)c2ccccc2)sc2c1CCCC2 | inconclusive [inhibitor, single point] |  |
| c1cc2c(cc1C1CCCCC1)c1c3n2CCN=C3CCC1 | inconclusive [inhibitor, partial curve] |  |
| CC(C)NCC(=O)Nc1c2c(nc3ccccc13)CCC2 |  | inactive: -4.16% |
| COc1ccc(-c2sc3ccccc3c2/C=C/c2ccncc2)cc1 | active: 7.08 µM |  |
| O=C(NC(c1ccc(Cl)cc1)c1cc(Cl)c2cccnc2c1O)c1cccnc1 (stereo not drawn) | inconclusive [inhibitor, full curve] |  |
| CCCCn1nc2cc(C(=O)N(CC)c3ccc(OC)cc3)ccc2c1OCC | inconclusive [inhibitor, partial curve] |  |
| CC(C(=O)NC1CCCC1)N(C(=O)c1ccc(-c2ccccc2)[nH]1)c1ccccc1F (stereo not drawn) |  | inactive: -48.9% |
| Cc1ccc(-c2cc(C(=O)NC3=NCCS3)c3ccccc3n2)cc1C | inconclusive [inhibitor, full curve, poor fit] |  |
| N#Cc1c(NC(=O)c2ccc(-c3ccccc3[N+](=O)[O-])o2)sc2c1CCCC2 | inconclusive [inhibitor, full curve] |  |
| CCOC(=O)C(Cc1cc(N)c(Oc2ccc(OC)cc2)c(N)c1)NC(C)=O (stereo not drawn) |  | inactive: -1.14% |

| Compound | Potency | activity change, negative = inhibition |
| --- | --- | --- |
| CCN(Cc1ccncc1)Cc1nc(Cc2ccccc2Cl)no1 | active: 11.2 µM |  |
| CC1Nc2ccccc2C(=O)N1NC(=O)c1ccc(Br)cc1 (stereo not drawn) |  | inactive: 16.8% |
| CCN(CC)CCNC(=O)c1ccc(Sc2ccc(C)cc2)c(NC(C)=O)c1 | inconclusive [inhibitor, partial curve] |  |
| Cc1cc(N2CCN(C)CC2)nc2ccc(NC(=S)NCCN3CCc4ccccc4C3)cc12 | active: 11.2 µM |  |
| COc1ccc(NC2=Nc3cccc4cccc2c34)cc1 | inconclusive [inhibitor, single point] |  |
| Cc1ccc(S(=O)(=O)CCC(=O)OCC(=O)NC(C)c2ccccc2)cc1 (stereo not drawn) |  | inactive: 25.9% |
| N#CCCSc1ncnc2c1oc1ccccc12 | inconclusive [inhibitor, single point] |  |
| Cc1nn(-c2ccccc2)c(C)c1NC(=O)COC(=O)CCc1ccccc1 |  | inactive: 11% |
| Cc1cc(C(=O)Nc2ccc3ccccc3c2)c(C)o1 |  | inactive: -9.32% |
| COc1ccc(OC)c(Nc2cc(C)nc3ccccc23)c1 | inconclusive [inhibitor, single point] |  |
| O=C(COC(=O)/C=C/c1ccc(Cl)cc1)Nc1cccc(S(=O)(=O)NC2=NCCCCC2)c1 |  | inactive: -9.64% |
| CCOc1ccc2[nH]c3c(N4CCN(c5ccccn5)CC4)ncnc3c2c1 | active: 1 µM |  |
| O=C(CSc1n[nH]c(-c2cccs2)n1)N1CCN(S(=O)(=O)c2ccc3ccccc3c2)CC1 | inconclusive [inhibitor, single point] |  |
| Cc1ccccc1-n1ncc2c(SCC(=O)NC3CCCC3)ncnc21 | active: 3.98 µM |  |
| COC(=O)c1sc2ccccc2c1NC(=O)c1ccc(S(=O)(=O)N2CCCC(C)C2)cc1 (stereo not drawn) | inconclusive [inhibitor, single point] |  |
| NCCCNc1ccc([N+](=O)[O-])cc1C(F)(F)F | inconclusive [inhibitor, single point] |  |
| COc1cccc(-c2sc3ccc(OC)cc3c2-c2ccc(OCCN3CCCC3)cc2)c1 | inconclusive [inhibitor, single point] |  |
| COc1c(S(=O)(=O)N2CCCCC2)ccc2c(S(=O)(=O)N3CCCCC3)cccc12 | inconclusive [inhibitor, partial curve] |  |
| CCOc1cc(N2CCOCC2)c(OCC)cc1NC(=O)[C@H](C)N1C(=O)C2CC=CCC2C1=O (stereo partly drawn) | inconclusive [inhibitor, single point] |  |
| O=C(N1CCOCC1)C(F)(F)C(F)(F)C(F)(F)C(F)(F)C(=O)N1CCOCC1 |  | inactive: 15% |
| CCC(C)Sc1cccc(-c2nc3ccc(Cl)cn3c2NCc2ccccc2)c1 (stereo not drawn) |  | inactive: 22% |
| O=C(Cc1ccsc1)NNC(=O)c1ccccc1O | inconclusive [inhibitor, single point] |  |
| COc1cc(CN2CCCC(C)C2)ccc1OCc1ccccc1 (stereo not drawn) |  | inactive: -10.8% |
| Cc1ccc(C(=O)c2c[nH]c(C(=O)NCc3cccnc3)c2)cc1 | inconclusive [inhibitor, single point] |  |
| CCOC(=O)/C(=N/Nc1ccccc1)c1csc(Nc2ccccc2)n1 | inconclusive [inhibitor, partial curve] |  |

| Compound | Potency | activity change, negative = inhibition |
| --- | --- | --- |
| Cn1nnnc1SCCNCc1ccccc1OCc1ccc(Cl)cc1 | inconclusive [inhibitor, partial curve] |  |
| CC(=O)N/N=C(/C)c1ccc(NC(=O)c2csc(C)c2C)cc1 |  | inactive: -17.5% |
| Cc1ccc(C(=O)N/C(=C\c2ccc([N+](=O)[O-])cc2)C(=O)NCCc2ccccc2)cc1 | inconclusive [inhibitor, full curve, poor fit] |  |
| Cc1ccc2nc(N3CCC(C(=O)N4CCC5(CC4)OCCO5)CC3)sc2c1 | inconclusive [inhibitor, single point] |  |
| CC1=Nc2cccc3cccc(c23)N1 | inconclusive [inhibitor, single point] |  |
| Nc1nc(NCc2ccco2)nc(N2CCCCCC2)c1[N+](=O)[O-] | inconclusive [inhibitor, single point] |  |
| COc1ccc(-c2csc(N3CCN(C(=O)c4ccco4)CC3)n2)cc1 |  | inactive: -26.1% |
| CC[n+]1c(/C=C2\C=C(C)CC(C)(C)C2)sc2ccccc21 | active: 6.31 µM |  |
| CCCSc1ccc([C@H]2N[C@@](CC(C)C)(C(=O)OC)[C@H]3C(=O)N(CC)C(=O)[C@@H]23)cc1 | inconclusive [inhibitor, single point] |  |
| CC1=C(C(=O)Nc2ccccc2C(=O)NC2CCCCC2)SCCO1 | inconclusive [inhibitor, single point] |  |
| COc1ccc(S(=O)(=O)N(C)c2ccc(C(=O)NCc3ccncc3)cc2)cc1 |  | inactive: 0.937% |
| CCc1nc2c(sc3nc4c(cc32)COC(C)(C)C4)c(=O)n1Cc1ccco1 | inconclusive [inhibitor, single point] |  |
| COc1ccccc1NS(=O)(=O)c1cc(NC(=O)Nc2cccc(C)c2)ccc1N1CCCCC1 | inconclusive [inhibitor, single point] |  |
| Cc1cccc(C(=O)OCC(=O)N2CC(=O)Nc3ccccc32)c1C | inconclusive [inhibitor, partial curve] |  |
| COc1ccc(/C=N\NC(=O)CNC(=O)C(c2ccccc2)c2ccccc2)cc1[N+](=O)[O-] |  | inactive: -13.1% |
| CCCSc1nc(SCC(=O)NCc2ccccc2)c2c3c(sc2n1)COC(C)(CC)C3 (stereo not drawn) |  | inactive: -11.8% |
| CCOC(=O)c1c(C)[nH]c(C)c1C(=O)CSc1nnnn1-c1ccccc1 | inconclusive [inhibitor, single point] |  |
| Cc1ccsc1-c1nc(CSCC(=O)N2CCN(c3ccccc3)CC2)c(C)o1 | inconclusive [inhibitor, single point] |  |
| COc1ccc(N(CC(=O)N2CCOCC2)S(C)(=O)=O)cc1 |  | inactive: 34.9% |
| O=C(N/N=C/c1cccnc1)c1ccc(NC(=O)c2ccccc2Cl)cc1 | inconclusive [inhibitor, single point] |  |
| Cc1cc(C(=O)COC(=O)CNC(=O)c2ccco2)c(C)n1Cc1ccco1 |  | inactive: 3.15% |
| c1cncc(CNc2nc(-c3cccnc3)nc3ccccc23)c1 | active: 22.4 µM |  |
| COc1ccc(/C=C2\SC(=O)N(CCNC(=O)CN3C(=O)NC4(CCCC4)C3=O)C2=O)cc1 | inconclusive [inhibitor, partial curve, poor fit] |  |
